From article PMC10928201
Results are given in words; binding and its absence hold for the method and conditions named. In cells and extracts the contact can be indirect. Some entries that bind do so weakly or less than the wild type. For some assays here: Where a sequence is shown, tags or fusion partners need not be part of it.

Amino acid sequences for entries named in this document (tags omitted). Residues count along the entry.
UniProt Q7L5D6: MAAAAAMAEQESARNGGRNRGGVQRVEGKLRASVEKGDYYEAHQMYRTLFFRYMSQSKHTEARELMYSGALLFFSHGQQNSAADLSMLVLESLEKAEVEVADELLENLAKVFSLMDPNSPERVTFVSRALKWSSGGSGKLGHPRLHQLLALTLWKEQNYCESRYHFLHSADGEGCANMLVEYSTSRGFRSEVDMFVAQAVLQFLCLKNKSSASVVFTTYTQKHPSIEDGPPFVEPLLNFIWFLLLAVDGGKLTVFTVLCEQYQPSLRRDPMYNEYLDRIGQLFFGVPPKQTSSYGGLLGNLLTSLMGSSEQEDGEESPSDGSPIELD
UniProt P38646, residues 47-679: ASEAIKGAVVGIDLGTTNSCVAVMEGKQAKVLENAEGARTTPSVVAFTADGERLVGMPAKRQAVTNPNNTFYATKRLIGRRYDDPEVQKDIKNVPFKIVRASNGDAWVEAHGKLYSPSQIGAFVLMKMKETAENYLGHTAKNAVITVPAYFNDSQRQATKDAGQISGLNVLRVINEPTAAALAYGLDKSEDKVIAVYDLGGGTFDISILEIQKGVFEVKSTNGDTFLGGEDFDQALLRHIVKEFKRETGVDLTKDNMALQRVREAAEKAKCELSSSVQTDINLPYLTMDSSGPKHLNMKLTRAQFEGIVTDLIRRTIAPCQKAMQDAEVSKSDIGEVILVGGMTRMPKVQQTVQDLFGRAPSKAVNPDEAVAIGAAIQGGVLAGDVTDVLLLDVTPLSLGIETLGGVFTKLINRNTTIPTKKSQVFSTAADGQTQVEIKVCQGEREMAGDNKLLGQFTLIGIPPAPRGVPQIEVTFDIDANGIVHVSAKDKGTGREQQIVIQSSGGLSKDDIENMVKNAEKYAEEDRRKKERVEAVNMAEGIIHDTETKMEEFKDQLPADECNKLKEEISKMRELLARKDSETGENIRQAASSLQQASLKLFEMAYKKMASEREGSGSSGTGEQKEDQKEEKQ
UniProt P21796: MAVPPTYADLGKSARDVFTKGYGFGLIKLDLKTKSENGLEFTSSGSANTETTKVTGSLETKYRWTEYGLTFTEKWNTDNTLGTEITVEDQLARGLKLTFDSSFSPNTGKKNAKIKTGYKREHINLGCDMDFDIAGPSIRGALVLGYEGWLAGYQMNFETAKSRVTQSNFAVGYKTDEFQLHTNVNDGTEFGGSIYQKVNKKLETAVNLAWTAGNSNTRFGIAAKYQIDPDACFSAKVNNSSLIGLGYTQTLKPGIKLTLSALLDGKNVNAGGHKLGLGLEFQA

Legend:
Experiment in all cases: co-IP; anti-GET4 or anti-BAG6 antibody coupled to Dynabeads, incubated with ER-Mito reporter cell lysate (3-5 mg protein) for 24 h at 4 °C; lysis and wash buffer 20 mM Tris pH 7.5, 100 mM NaCl, 1% Triton, 10% glycerol; western blot; clones 1 and 2
[1] = molecular target: BAG6 (human (endogenous in HeLa)) (UniProt P46379)
[2] = molecular target: GET4 (human (endogenous in HeLa)) (UniProt Q7L5D6)
[3] = molecular target: BAG6 (human (endogenous in HeLa)), P46379; conditions: remark: other sources report otherwise

glucose-regulated protein 75 (GRP75) (from UniProt P38646 47-679)
binding [1]: binds | binding [2]: no binding

voltage-dependent anion-selective channel protein 1 (VDAC1) (from UniProt P21796 1-283)
binding [1]: no binding | binding [2]: no binding

B1: mitofusin 2 (MFN2), O95140 1-757 (protein)
chain: MSLLFSRCNSIVTVKKNKRHMAEVNASPLKHFVTAKKKINGIFEQLGAYIQESATFLEDTYRNAELDPVTTEEQVLDVKGYLSKVRGISEVLARRHMKVAFFGRTSNGKSTVINAMLWDKVLPSGIGHTTNCFLRVEGTDGHEAFLLTEGSEEKRSAKTVNQLAHALHQDKQLHAGSLVSVMWPNSKCPLLKDDLVLMDSPGIDVTTELDSWIDKFCLDADVFVLVANSESTLMQTEKHFFHKVSERLSRPNIFILNNRWDASASEPEYMEEVRRQHMERCTSFLVDELGVVDRSQAGDRIFFVSAKEVLNARIQKAQGMPEGGGALAEGFQVRMFEFQNFERRFEECISQSAVKTKFEQHTVRAKQIAEAVRLIMDSLHMAAREQQVYCEEMREERQDRLKFIDKQLELLAQDYKLRIKQITEEVERQVSTAMAEEIRRLSVLVDDYQMDFHPSPVVLKVYKNELHRHIEEGLGRNMSDRCSTAITNSLQTMQQDMIDGLKPLLPVSVRSQIDMLVPRQCFSLNYDLNCDKLCADFQEDIEFHFSLGWTMLVNRFLGPKNSRRALMGYNDQVQRPIPLTPANPSMPPLPQGSLTQEEFMVSMVTGLASLTSRTSMGILVVGGVVWKAVGWRLIALSFGLYGLLYVYERLTWTTKAKERAFKRQFVEHASEKLQLVISYTGSNCSHQVQQELSGTFAHLCQQVDVTRENLEQEIAAMNKKIEVLDSLQSKAKLLRNKAGWLDSELNMFTHQYLQPSR
binding [3]: no binding
